Results published in PubChem BioAssay AID686971 (National Center for Advancing Translational Sciences (NCATS), 2013).
The campaign covered roughly 360,000 compounds. About 7,500 (2.1%) were called active. The shares of active, inactive and inconclusive entries below differ from those in the screen. The call rests on the fitted dose curve; in most records, active means well fitted cell-killing curve with a large enough effect; inconclusive means small, poorly fitted or top-dose-only effect, or effect the other way, or another doubt; inactive means no such curve, though single readings can be large or run the other way. No potency is given beside an inconclusive call; the fits are too rough.

Experiment: qHTS for induction of synthetic lethality in tumor cells producing 2HG: qHTS for the HT-1080-IDH1KD cell line;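 on activity, negative = toxicity: 0% = DMSO wells and -100% = cell-free medium wells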
Conditions: HT-1080 IDH1 knockdown viability, ATP luminescence, 48 h; activity, negative = toxicity: at 46.1 µM (top of the series) unless noted
Outline: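 IDH1KD HT-1080 cells, 750/well, RPMI + 5% FBS; compound pinned after 2 h settling; 48 h, 37 °C; CellTiter-Glo luminescence; % activity normalised to DMSO and no-cell wells; curves fitted, classed by r2 and efficacy.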
Potency means the concentration at half of the fitted maximal effect; tags describe the fitted curve by direction and shape.

| SMILES | activity, negative = toxicity | Potency |
| --- | --- | --- |
| COc1ccc(C)cc1NC(=O)c1cc(S(=O)(=O)N2CCCCC2)ccc1N1CCOCC1 | inactive: -25.8% | – |
| CCOCCCNc1nc2c(C)cccn2c(=O)c1/C=C1\SC(=S)N(C(C)CC)C1=O (stereo unspecified) | – | inconclusive [rising, single point] |
| CC(=O)Nc1ccc(C(=O)CSc2nnc(-c3ccccc3F)n2CCc2ccccc2)cc1 | inactive: -9.34% | – |
| Clc1cccc(-c2nnc(SC/C=C/c3ccccc3)n2Cc2ccco2)c1 | – | inconclusive [cytotoxic, single point] |
| Cc1ccc(C#CC[N+](C)(C)CC#Cc2ccccc2)cc1 | – | inconclusive [cytotoxic, partial curve] |
| CCNS(=O)(=O)c1ccc(CCC(=O)N2CCN(c3cc(Cl)ccc3C)CC2)cc1 | – | inconclusive [cytotoxic, partial curve] |
| Cc1cccc(C)c1NC(=O)CN(Cc1ccccc1)Cc1ccccc1 | – | inconclusive [cytotoxic, single point] |
| COc1ccccc1/C=N\Nc1cn[nH]c(=O)c1Cl | inconclusive: -30.6% [cytotoxic] | – |
| O=C(Cn1cc([N+](=O)[O-])ccc1=O)N1CCc2ccccc21 | inconclusive: -32.5% [cytotoxic] | – |
| COc1ccc(N=Cc2c(OC)ccc3ccccc23)cc1 | – | inconclusive [cytotoxic, partial curve] |
| CN(C)Cc1nc2c([nH]1)c(=O)n(C)c(=O)n2C | inactive: 6.41% | – |
| CC1=Nc2ccccc2/C1=C\c1sc(Nc2ccc(C)cc2)nc1O | – | active: 0.651 µM |
| CCOC(=O)Cn1cc(C(=O)c2ccco2)c2ccccc21 | inactive: -1.34% | – |
| O=C(Nc1cccn(Cc2c(F)cccc2Cl)c1=O)NC1CCCCC1 | – | inconclusive [cytotoxic, single point] |
| CC(NC(=O)CN1CCOCC1)c1ccccc1 (stereo unspecified) | inactive: 0.499% | – |
| O=C(N/N=C/c1ccc(O)cc1)c1cccc(N/N=C/c2ccc(O)cc2)c1 | – | inconclusive [cytotoxic, partial curve] |
| CCN(CC)CCCN(Cc1cc2cc3c(cc2[nH]c1=O)OCCO3)C(=O)Nc1ccc(F)cc1 | – | inconclusive [cytotoxic, single point] |
| O=C(O)c1ccc2c(=O)n3c(nc2c1)/C(=C/c1ccc(OC(F)F)cc1OC(F)F)CC3 | – | inconclusive [cytotoxic, single point] |
| COC(=O)c1ccc(CSc2nc3sc4c(c3c(=O)n2C)CCCC4)o1 | – | inconclusive [rising, single point] |
| COc1ccc(OC)c(NC(=O)COC(=O)CCc2nc3ccccc3c(=O)[nH]2)c1 | inactive: -0.429% | – |
| Cc1cccc(NC(=O)c2ccc(C(=O)Nc3cccc(C)c3)nc2)c1 | – | active: 20.6 µM |
| COc1ccc(Cl)cc1-c1cc(C(=O)Nc2ccc(Br)cc2)[nH]n1 | – | inconclusive [cytotoxic, single point] |
| CCN1CCN(c2ccc(NC(=O)c3cccc(OCc4ccccc4)c3)cc2)CC1 | – | inconclusive [cytotoxic, partial curve] |
| COc1ccc(S(=O)(=O)N2c3cc(Cl)ccc3Oc3nc4ccccc4nc32)cc1 | – | active: 0.92 µM |

| SMILES | activity, negative = toxicity | Potency |
| --- | --- | --- |
| CCOC(=O)c1c(C)[nH]c(C)c1C(=O)CSc1nc2ccccc2n1CCOC | inactive: 1.79% | – |
| CCC(CC)C(=O)N(C)c1c(C)nc2c(OCc3ccc(Cl)cc3)cccn12 | – | inconclusive [cytotoxic, single point] |
| COc1ccc(SC[C@H](C)CN2CC[C@H](C)CCC2=O)cc1 | inactive: 7.22% | – |
| OC[C@@H]1CN(Cc2ccc(-c3ccccc3)cc2)C[C@H](n2cnc3c(Nc4ccccc4)ncnc32)O1 | – | active: 10.3 µM |
| COc1ccc2nc(NC(=O)c3ccoc3C)sc2c1 | – | active: 11.2 µM |
| COc1ccc(C2c3[nH]c4ccccc4c3CCN2CCCn2cccn2)cc1C (stereo unspecified) | – | inconclusive [cytotoxic, single point] |
| COCc1cccc(NC(=O)Cc2cccc3ccccc23)c1 | – | inconclusive [cytotoxic, single point] |
| Cc1ccc(C)c(N2CCN(CCCNC(=O)Cn3cccc3C(=O)c3ccccc3C)CC2)c1 | – | active: 23.1 µM |
| O=C(O)CCCC(=O)N1CCc2cc(S(=O)(=O)NCc3ccc(F)cc3)ccc21 | inactive: 2.07% | – |
| N#Cc1nc(COc2cccc(Cl)c2)oc1N1CCN(c2ccccc2)CC1 | inactive: 3.39% | – |
| Cc1cccc(C)c1NC(=S)Nc1ccc(Cl)c(Cl)c1 | inactive: -9.02% | – |
| CCOc1ccc(C(=O)Nc2c(C(=O)N3CCC(N4CCCCC4)CC3)oc3ccccc23)cc1 | – | inconclusive [cytotoxic, single point] |
| CC(NC(=O)COC(=O)CNC(=O)C1CCCCC1)c1ccccc1 (stereo unspecified) | inactive: -2.33% | – |
| O=C(COC(=O)CC1CC2CCC1C2)Nc1ccc(Cl)c(S(=O)(=O)N2CCOCC2)c1 (stereo unspecified) | – | inconclusive [cytotoxic, single point] |
| Cc1cc(C(=O)NN=C2CCCCCCC2)c2ccccc2n1 | – | inconclusive [cytotoxic, single point] |
| O=C(CCC(=O)OCC(=O)c1cccc([N+](=O)[O-])c1)Nc1cccc(Cl)c1Cl | inactive: -7.05% | – |
| S=c1[nH]nc(CSCc2ccc(Cl)cc2Cl)n1-c1ccccc1 | – | inconclusive [cytotoxic, full curve] |
| CCC(C(=O)OCC(=O)Nc1ccc(C(=O)Nc2ccc(OC)cc2)cc1)c1ccccc1 (stereo unspecified) | – | active: 25.9 µM |
| COC(=O)C(F)(F)Sc1c(C)[nH]c2ccccc12 | – | inconclusive [cytotoxic, single point] |
| Cc1ccc(S(=O)(=O)CCC(=O)Nc2nc(C(C)(C)C)cs2)cc1 | – | inconclusive [cytotoxic, single point] |
| COc1ccc(C(=O)C=CNNC(=O)c2ccc(Cl)cc2)cc1 | – | inconclusive [cytotoxic, single point] |
| CCc1ccc(CNc2ccc(O)cc2)cc1 | – | inconclusive [cytotoxic, single point] |
| O=C(CCC(=O)N1CCSc2ccccc21)NCc1ccc(Cl)cc1 | inactive: 6.94% | – |
| CC(NC(=O)Cc1ccccc1)C(=O)O (stereo unspecified) | inactive: 7.76% | – |

| SMILES | activity, negative = toxicity | Potency |
| --- | --- | --- |
| COC(=O)CCCn1cc(CN2CC(N3CCN(Cc4ccccc4F)CC3)CS2(=O)=O)nn1 (stereo unspecified) | inconclusive: 13.8% | – |
| O=[N+]([O-])c1ccc(Oc2ccc(S(=O)(=O)Nc3ccccc3)cc2)cc1 | – | inconclusive [cytotoxic, partial curve] |
| Cc1ccc(NS(=O)(=O)c2cc(-c3n[nH]c(=O)c4ccccc34)ccc2C)cc1 | – | active: 14.6 µM |
| CCCCN(CC)S(=O)(=O)c1ccc(C(=O)Nc2nnc(COC)o2)cc1 | – | inconclusive [cytotoxic, single point] |
| CC1(C)CC(N2CCCC2)=CC(=[N+]2CCCCC2)C1 | – | inconclusive [cytotoxic, partial curve] |
| O=C(COc1ccc(F)cc1)Nc1nnc(C2CCCCC2)s1 | – | inconclusive [rising, partial curve] |
| CCCCCCCCN1C(=O)[C@H](CC(=O)NCCCN2CCCC2=O)C[C@@]2(C(=O)OC)CC(C)(C)CC=C12 | – | inconclusive [cytotoxic, single point] |
| C/C(=N\NC(=O)c1cccc(N/N=C(\C)c2cc(O)ccc2O)c1)c1cc(O)ccc1O | – | active: 18.4 µM |
| O=C(NCCN1CCN(C(=O)c2c(F)cccc2F)CC1)C(=O)Nc1ccc(Cl)cc1 | inactive: -18.3% | – |
| COc1ccc(NC(=O)C2C3C=CC(O3)C2C(=O)O)cc1 (stereo unspecified) | – | inconclusive [cytotoxic, single point] |
| Cc1ccc(C2CC(C(F)F)n3ncc(C(=O)Nc4cnn(Cc5ccccc5C)c4)c3N2)cc1 (stereo unspecified) | – | inconclusive [cytotoxic, partial curve] |
| CCC1(C)CC2(CCCN(CCC(O)(c3ccccc3)c3ccccc3)C2)CCO1 (stereo unspecified) | – | inconclusive [cytotoxic, single point] |
| C=C(C)CSc1nc(N)c(C#N)c(-c2ccc(C)cc2)c1C#N | – | inconclusive [cytotoxic, single point] |
| COC(=O)c1c(NC(=O)CSc2nnc(CNc3ccc(Cl)cc3)o2)sc(C)c1C | – | inconclusive [cytotoxic, single point] |
| c1ccc2c(OCCCCN3CCCC3)cccc2c1 | inactive: -11.5% | – |
| Fc1ccc(CSc2ccc(-c3ccc4c(c3)OCO4)nn2)cc1 | – | inconclusive [cytotoxic, single point] |
| CCCN1CCN(C(c2cc3cc(OCC)ccc3[nH]c2=O)c2nnnn2C2CCCCC2)CC1 (stereo unspecified) | – | inconclusive [cytotoxic, single point] |
| Nc1c(C(=O)NCc2ccc3c(c2)OCO3)c2nc3ccccc3nc2n1CCCN1CCOCC1 | inactive: 6.79% [at 9.24 µM] | – |
| COc1cccc(CN2CCC2(C)C(=O)Nc2cnc3ccccc3c2)c1F (stereo unspecified) | – | inconclusive [cytotoxic, single point] |
| Cc1cccc(-c2cc3nc(C)c(C)c(NCCCn4ccnc4)n3n2)c1 | – | inconclusive [cytotoxic, partial curve] |
| COCCn1c(C)cc(C2=NNC(=NC3CC3)SC2)c1C | – | inconclusive [cytotoxic, partial curve] |
| CCCCc1c(-c2cccc(OC)c2)ncn1CCc1ccccc1OC | – | active: 25.9 µM |
| O=C(Cc1ccc(Cl)cc1)c1c[nH]c(C(=O)NCc2cccnc2)c1 | – | inconclusive [cytotoxic, single point] |
